# Data reported in the antibiotic and cytotoxicity screens of Wong et al. (2023).
# The list shows a part of the results.
# Columns and labels:
# HSkMC = human skeletal muscle cells; experiment: cytotoxicity call (relative viability < 0.9); details: 10 µM
# HepG2 = experiment: cytotoxicity call (relative viability < 0.9); details: 10 µM
# S. aureus RN4220 = experiment: growth inhibition call (relative growth <= 0.2); details: 50 µM
SMILES,cytotoxicity call (HSkMC),cytotoxicity call (HepG2),growth inhibition call (S. aureus RN4220)
Cc1ccc(C(=O)N2CCN(c3ccc(NC(=O)COc4c(C)cc(C)cc4Br)cc3)CC2)cc1,inactive,inactive,inactive
C[C@@H]1CCCCO[C@H](CN(C)S(=O)(=O)c2cccs2)[C@@H](C)CN([C@@H](C)CO)C(=O)c2cc(NC(=O)Nc3ccccc3)ccc2O1,inactive,inactive,inactive
O=c1cc(-c2ccccc2O)oc2ccc(O)cc12,inactive,inactive,inactive
CC(C)=CCC[C@](C)(O[C@@H]1O[C@H](CO)[C@@H](O)[C@H](O)[C@H]1O)[C@H]1CC[C@]2(C)[C@@H]1[C@H](O)C[C@@H]1[C@@]3(C)CC[C@H](O)C(C)(C)[C@@H]3[C@@H](O[C@@H]3O[C@H](CO)[C@@H](O)[C@H](O)[C@H]3O[C@@H]3O[C@@H](C)[C@H](O)[C@@H](O)[C@H]3O)C[C@]12C,inactive,inactive,inactive
COc1cc(/C=C/C(=O)CC2=N/C(=N/c3ccc(OC)c(OC)c3)S[C@H](c3ccc(O)c(OC)c3)C2)ccc1O,inactive,inactive,inactive
C[C@H]1CN([C@@H](C)CO)C(=O)c2c(c3ccccc3n2C)-c2ccccc2CO[C@@H]1CN(C)C(=O)c1cc(Cl)cc(Cl)c1,inactive,inactive,inactive
COc1ccc(C2=C(NC(=O)c3ccc(OC)cc3-c3cccc(OC)c3)C(=O)c3ccccc3C2=O)cc1,inactive,active,inactive
C[C@@H]1CN([C@@H](C)CO)C(=O)c2cc(NC(=O)Nc3ccccc3)ccc2O[C@@H](C)CCCCO[C@H]1CN(C)S(=O)(=O)c1cccs1,inactive,inactive,inactive
Cc1noc(C)c1NC(=O)Nc1ccc2c(c1)C(=O)N([C@H](C)CO)C[C@@H](C)[C@@H](CN(C)CC1CCCCC1)OCCCC[C@@H](C)O2,inactive,inactive,inactive
CCOC(=O)N1c2ccc(C(F)(F)F)cc2[C@@H](N(Cc2cc(C(F)(F)F)cc(C(F)(F)F)c2)C(=O)OC)C[C@H]1CC,inactive,inactive,inactive
C[C@H]1CCCCO[C@@H](CN(C)C(=O)NC2CCCCC2)[C@@H](C)CN([C@@H](C)CO)C(=O)c2cc(NC(=O)Nc3ccc(F)cc3)ccc2O1,inactive,active,inactive
C[C@@H](N)CO,inactive,inactive,inactive
C[C@H](C(=O)N(C)C[C@@H]1OCc2ccccc2-c2c(n(C)c3ccccc23)C(=O)N([C@H](C)CO)C[C@@H]1C)c1ccccc1,inactive,inactive,inactive
C[C@@H]1CCCCO[C@H](CN(C)S(=O)(=O)c2ccc(Cl)cc2)[C@@H](C)CN([C@H](C)CO)C(=O)c2cc(NC(=O)Nc3ccc4c(c3)OCO4)ccc2O1,inactive,inactive,inactive
C[C@H]1CN([C@@H](C)CO)C(=O)c2cccc(NS(=O)(=O)c3cn(C)cn3)c2O[C@@H]1CN(C)C(=O)Nc1ccc2c(c1)OCO2,inactive,inactive,inactive
CN1CCN(C(=O)C[C@H]2C=C[C@@H](NC(=O)Cc3ccccn3)[C@@H](CO)O2)CC1,inactive,inactive,inactive
C[C@H]1CN([C@@H](C)CO)C(=O)c2cccc(NC(=O)CCCCCC(=O)Nc3ccccc3N)c2O[C@@H]1CN(C)C(=O)Nc1cccc2ccccc12,inactive,inactive,inactive
C[C@H](CO)N1C[C@H](C)[C@@H](CN(C)Cc2ccc(C(F)(F)F)cc2)Oc2c(NC(=O)Nc3ccc4c(c3)OCO4)cccc2C1=O,inactive,inactive,inactive
C[C@@H]1CN([C@@H](C)CO)C(=O)c2cc(NS(=O)(=O)c3cccs3)ccc2O[C@@H](C)CCCCO[C@@H]1CN(C)Cc1ccc(C(=O)O)cc1,inactive,inactive,inactive
C[C@H]1CN([C@@H](C)CO)C(=O)c2cc(NC(=O)CCCN(C)C)ccc2O[C@H]1CN(C)C(=O)Nc1ccc(F)cc1,inactive,inactive,inactive
C[C@@H]1CCCCO[C@H](CN(C)C(=O)CCC(F)(F)F)[C@H](C)CN([C@@H](C)CO)C(=O)c2cc(NS(=O)(=O)c3cccs3)ccc2O1,inactive,inactive,inactive
O=C(C[C@H]1CC[C@H]2[C@@H](COC[C@H](O)CN2C(=O)Nc2ccc(Cl)c(Cl)c2)O1)NCc1ccncc1,inactive,inactive,inactive
COCCOC(=O)N1C(=O)[C@@]2(c3cc(C#CC4=CCCCC4)ccc31)[C@H](C(=O)N1CCCCCCC1)[C@H]1C(=O)O[C@H](c3ccccc3)[C@H](c3ccccc3)N1[C@@H]2c1ccc(OCCO)cc1,inactive,inactive,inactive
